This is one part of the list.
What was measured:
Assay in all cases: glycan array binding signal (z-score within array); higher = stronger binding
Conditions in all cases: glycan notation: IUPAC condensed, linker removed
[1] = molecular target: Fuc(a1-3)[Gal3S(b1-4)]GlcNAc6S
Outline: (§1)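 Arrays were curated from the Consortium for Functional Glycomics database, 3228 in total, and kept only where the protein sequence was available. Binding is expressed as a within-array Z-score. This score was averaged across arrays of the same protein sequence at different concentrations or buffers and across linkers, and negative values can be read as non-binding.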

[2] = molecular target: Fuc(a1-3)[GalNAc(b1-4)]GlcNAc
Outline: as §1

[3] = molecular target: Fuc(a1-3)[GalNAc(b1-4)]GlcNAc6S
Outline: as §1

Fuc(a1-4)GlcNAc = molecular target: Fuc(a1-4)GlcNAc
Outline: as §1

Fuc(b1-3)GlcNAc = molecular target: Fuc(b1-3)GlcNAc
Outline: as §1

Gal(a1-2)Gal = molecular target: Gal(a1-2)Gal
Outline: as §1

Gal(a1-3)Gal = molecular target: Gal(a1-3)Gal
Outline: as §1

Gal(a1-3)Gal(b1-3)GlcNAc = molecular target: Gal(a1-3)Gal(b1-3)GlcNAc
Outline: as §1

[4] = molecular target: Gal(a1-3)Gal(b1-3)GlcNAc(b1-2)Man
Outline: as §1

[5] = molecular target: Gal(a1-3)Gal(b1-3)GlcNAc(b1-2)Man(a1-3)[Gal(a1-3)Gal(b1-3)GlcNAc(b1-2)Man(a1-6)]Man(b1-4)GlcNAc(b1-4)GlcNAc
Outline: as §1

[6] = molecular target: Gal(a1-3)Gal(b1-3)GlcNAc(b1-3)GalNAc
Outline: as §1

[7] = molecular target: Gal(a1-3)Gal(b1-3)GlcNAc(b1-6)GalNAc
Outline: as §1

[8] = molecular target: Gal(a1-3)Gal(b1-3)[Fuc(a1-4)]GlcNAc(b1-2)Man(a1-3)[Gal(a1-3)Gal(b1-3)[Fuc(a1-4)]GlcNAc(b1-2)Man(a1-6)]Man(b1-4)GlcNAc(b1-4)GlcNAc
Outline: as §1

Gal(a1-3)Gal(b1-4)Glc = molecular target: Gal(a1-3)Gal(b1-4)Glc
Outline: as §1

Gal(a1-3)Gal(b1-4)GlcNAc = molecular target: Gal(a1-3)Gal(b1-4)GlcNAc
Outline: as §1

[9] = molecular target: Gal(a1-3)Gal(b1-4)GlcNAc(b1-2)Man
Outline: as §1

[10] = molecular target: Gal(a1-3)Gal(b1-4)GlcNAc(b1-2)Man(a1-3)[Gal(a1-3)Gal(b1-4)GlcNAc(b1-2)Man(a1-6)]Man(b1-4)GlcNAc(b1-4)GlcNAc
Outline: as §1

[11] = molecular target: Gal(a1-3)Gal(b1-4)GlcNAc(b1-3)GalNAc
Outline: as §1

[12] = molecular target: Gal(a1-3)Gal(b1-4)GlcNAc(b1-6)GalNAc
Outline: as §1

[13] = molecular target: Gal(a1-3)Gal(b1-4)[Fuc(a1-3)]GlcNAc
Outline: as §1

[14] = molecular target: Gal(a1-3)Gal(b1-4)[Fuc(a1-3)]GlcNAc(b1-2)Man(a1-3)[Gal(a1-3)Gal(b1-4)[Fuc(a1-3)]GlcNAc(b1-2)Man(a1-6)]Man(b1-4)GlcNAc(b1-4)GlcNAc
Outline: as §1

Gal(a1-3)GalNAc = molecular target: Gal(a1-3)GalNAc
Outline: as §1

[15] = molecular target: Gal(a1-3)[Gal(a1-4)]Gal(b1-4)GlcNAc
Outline: as §1

[16] = molecular target: Gal(a1-4)Gal(b1-3)GlcNAc(b1-2)Man(a1-3)[Gal(a1-4)Gal(b1-3)GlcNAc(b1-2)Man(a1-6)]Man(b1-4)GlcNAc(b1-4)GlcNAc
Outline: as §1

Gal(a1-4)Gal(b1-4)Glc = molecular target: Gal(a1-4)Gal(b1-4)Glc
Outline: as §1

Gal(a1-4)Gal(b1-4)GlcNAc = molecular target: Gal(a1-4)Gal(b1-4)GlcNAc
Outline: as §1

[17] = molecular target: Gal(a1-4)Gal(b1-4)GlcNAc(b1-2)Man(a1-3)[Gal(a1-4)Gal(b1-4)GlcNAc(b1-2)Man(a1-6)]Man(b1-4)GlcNAc(b1-4)GlcNAc
Outline: as §1

[18] = molecular target: Gal(a1-4)Gal(b1-4)GlcNAc(b1-3)Gal(b1-4)Glc
Outline: as §1

Gal(a1-4)GlcNAc = molecular target: Gal(a1-4)GlcNAc
Outline: as §1

Gal(a1-6)Glc = molecular target: Gal(a1-6)Glc
Outline: as §1

Gal(b1-2)Gal = molecular target: Gal(b1-2)Gal
Outline: as §1

Gal(b1-3)Gal = molecular target: Gal(b1-3)Gal
Outline: as §1

Gal(b1-3)Gal(b1-4)GlcNAc = molecular target: Gal(b1-3)Gal(b1-4)GlcNAc
Outline: as §1

Gal(b1-3)GalNAc = molecular target: Gal(b1-3)GalNAc
Outline: as §1

[19] = molecular target: Gal(b1-3)GalNAc(a1-3)[Fuc(a1-2)]Gal(b1-4)Glc
Outline: as §1

[20] = molecular target: Gal(b1-3)GalNAc(a1-3)[Fuc(a1-2)]Gal(b1-4)GlcNAc
Outline: as §1

Gal(b1-3)GalNAc(b1-3)Gal = molecular target: Gal(b1-3)GalNAc(b1-3)Gal
Outline: as §1

[21] = molecular target: Gal(b1-3)GalNAc(b1-3)Gal(a1-4)Gal(b1-4)Glc
Outline: as §1

[22] = molecular target: Gal(b1-3)GalNAc(b1-4)Gal(b1-4)Glc
Outline: as §1

[23] = molecular target: Gal(b1-3)GalNAc(b1-4)[Neu5Ac(a2-3)]Gal(b1-4)Glc
Outline: as §1

Gal(b1-3)GlcNAc = molecular target: Gal(b1-3)GlcNAc
Outline: as §1

[24] = molecular target: Gal(b1-3)GlcNAc(a1-3)Gal(b1-4)GlcNAc
Outline: as §1

[25] = molecular target: Gal(b1-3)GlcNAc(a1-6)Gal(b1-4)GlcNAc
Outline: as §1

Gal(b1-3)GlcNAc(b1-2)Man = molecular target: Gal(b1-3)GlcNAc(b1-2)Man
Outline: as §1

[26] = molecular target: Gal(b1-3)GlcNAc(b1-2)Man(a1-3)[Gal(b1-3)GlcNAc(b1-2)Man(a1-6)]Man(b1-4)GlcNAc(b1-4)GlcNAc
Outline: as §1

B1: rCnSL-proB (Clitocybe nebularis) (protein)
chain: PTFSPIFALLAFLPFGTLASLLPQTQLVFRINPNLPGPNDVFVGYRGTNNVVGAIYERDGIKDTPMNNGADAELGPGSYITDDLFTAQIFASGSAGNNPGTTATVCKIYADGVQWRGAPKGYLPVLYFGNGQAAEQTRQTYLQGLDIPGTAIRFANLAKTPNQGPTAPRQMVVPSGGLQTLLKASCFPANHAALPQVLSYFNVRAALPPGWNIRTGPEFPNWTN
- glycan array binding signal (z-score) [1]: -0.471
- glycan array binding signal (z-score) [2]: -0.057
- glycan array binding signal (z-score) [3]: -0.381
- glycan array binding signal (z-score) (Fuc(a1-4)GlcNAc): -0.194
- glycan array binding signal (z-score) (Fuc(b1-3)GlcNAc): -0.461
- glycan array binding signal (z-score) (Gal(a1-2)Gal): -0.088
- glycan array binding signal (z-score) (Gal(a1-3)Gal): -0.219
- glycan array binding signal (z-score) (Gal(a1-3)Gal(b1-3)GlcNAc): 1.26
- glycan array binding signal (z-score) [4]: 0.478
- glycan array binding signal (z-score) [5]: -0.093
- glycan array binding signal (z-score) [6]: -0.424
- glycan array binding signal (z-score) [7]: -0.312
- glycan array binding signal (z-score) [8]: 0.078
- glycan array binding signal (z-score) (Gal(a1-3)Gal(b1-4)Glc): -0.078
- glycan array binding signal (z-score) (Gal(a1-3)Gal(b1-4)GlcNAc): -0.349
- glycan array binding signal (z-score) [9]: 0.01
- glycan array binding signal (z-score) [10]: 0.78
- glycan array binding signal (z-score) [11]: -0.395
- glycan array binding signal (z-score) [12]: -0.496
- glycan array binding signal (z-score) [13]: -0.354
- glycan array binding signal (z-score) [14]: 3.18
- glycan array binding signal (z-score) (Gal(a1-3)GalNAc): -0.678
- glycan array binding signal (z-score) [15]: -0.363
- glycan array binding signal (z-score) [16]: 0.571
- glycan array binding signal (z-score) (Gal(a1-4)Gal(b1-4)Glc): -0.285
- glycan array binding signal (z-score) (Gal(a1-4)Gal(b1-4)GlcNAc): -0.684
- glycan array binding signal (z-score) [17]: 2.48
- glycan array binding signal (z-score) [18]: -0.611
- glycan array binding signal (z-score) (Gal(a1-4)GlcNAc): -0.681
- glycan array binding signal (z-score) (Gal(a1-6)Glc): -0.587
- glycan array binding signal (z-score) (Gal(b1-2)Gal): 0.126
- glycan array binding signal (z-score) (Gal(b1-3)Gal): 0.217
- glycan array binding signal (z-score) (Gal(b1-3)Gal(b1-4)GlcNAc): -0.603
- glycan array binding signal (z-score) (Gal(b1-3)GalNAc): -0.544
- glycan array binding signal (z-score) [19]: 0.126
- glycan array binding signal (z-score) [20]: -0.607
- glycan array binding signal (z-score) (Gal(b1-3)GalNAc(b1-3)Gal): -0.333
- glycan array binding signal (z-score) [21]: -0.085
- glycan array binding signal (z-score) [22]: -0.19
- glycan array binding signal (z-score) [23]: -0.303
- glycan array binding signal (z-score) (Gal(b1-3)GlcNAc): -0.192
- glycan array binding signal (z-score) [24]: 1.66
- glycan array binding signal (z-score) [25]: -0.071
- glycan array binding signal (z-score) (Gal(b1-3)GlcNAc(b1-2)Man): 0.301
- glycan array binding signal (z-score) [26]: 0.626
